# Results from publication PMC12040169 (PLOS Biology, 2025).
# Some of the results follow.
# Test system: T1, C. trachomatis L2/434/Bu expressing GFP (CTL2-GFP)
# T1 construct: L2/434/Bu GFP intracellular growth in HeLa cells
# Parameters: species or system HeLa; C. trachomatis total inclusion area by high-content imaging, normalised to DMSO
# Details: total inclusion area; 28.5 h, 10 µM; inhibitor
# In short: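 High-content images of fixed, Hoechst-stained infected cultures supply inclusion area and count (growth) plus nuclei number (viability), complementing bulk GFP/resorufin fluorescence. MIC determination is unchanged from the primary assay.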
row,SMILES,% of control remaining
1,CC1(C)CC(NC(=O)Cn2ccc3ccccc32)CCO1 (stereo not shown) [CBK304347],69.9124
2,COc1cccc(OC)c1-c1cn2ccnc2c(NC2CC2)n1 [CBK038020],154.463
3,Cc1cc(NC(=O)N2CCCN(CC3CCCCC3)CC2)no1 [CBK306239],24.369
4,Cc1ccc(C)c(-n2nnnc2SCC(=O)c2ccc(Cl)cc2Cl)c1 [CBK141941],78.7719
5,O=C(CCNS(=O)(=O)c1ccc(Cl)cc1)Nc1ccncc1 [CBK269244],100.197
6,O=C(O)c1ccc(N2C(=O)CC(N3CCN(c4cccc(C(F)(F)F)c4)CC3)C2=O)cc1 (stereo not shown) [CBK287228],94.8455
7,COc1cccc2ncn(CCCc3nc(C)c(C)s3)c(=O)c12 [CBK307208],91.13
8,CCCN1CCN(S(=O)(=O)c2ccc(C)cc2)CC1 [CBK270326],120.478
9,O=C(Cc1ccccc1)N1CCN(S(=O)(=O)N2CCCCC2)CC1 [CBK269097],93.764
10,CCn1c(=O)n(CCC(N)=O)c2cc(S(=O)(=O)N(C)C)ccc21 [CBK305577],61.6401
11,Cc1onc(-c2ccccc2Cl)c1C(=O)N(Cc1nc(-c2ccccc2)no1)C(C)C [CBK269289],99.9016
12,O=C(NS(=O)(=O)c1cccc(-c2nnco2)c1)C1CC1C1CCCCC1 (stereo not shown) [CBK305924],15.5214
13,O=C(O)C1CCCCC1C(=O)N1CCc2ccccc2C1 (stereo not shown) [CBK286594],90.1755
14,O=C(CN1C(=O)COc2ccccc21)NCc1ccco1 [CBK269682],69.2218
15,Cc1ccccc1C1(O)CCN(CC(O)c2ccc3c(c2)CCC3)CC1 (stereo not shown) [CBK286329],110.879
16,O=C(Nc1ncc(-c2ccccc2)s1)c1csc([N+](=O)[O-])c1 [CBK298293],105.947
17,COCCNC(=O)N1CCN(c2ccccc2)CC1 [CBK155181],88.0989
18,O=C1NCCCC12CCN(Cc1cccc3ncccc13)CC2 [CBK285033],109.777
19,CCOC(=O)N1CCN(Cc2ccc(OCC3CCCNC3)cc2)CC1 (stereo not shown) [CBK307355],72.1966
20,Cc1sc(NC(=S)NC(=O)c2ccco2)c(C(N)=O)c1C [CBK266272],131.872
21,CN1CCC(N(C)C/C(Cl)=C/c2ccccc2)CC1 [CBK261903],95.1583
22,CC(Nc1ncnc2c1cnn2C)c1ccccc1 (stereo not shown) [CBK288093],62.4345
23,Cc1ccc(-c2cccc(N3CCN(CCN4CCCC4)CC3)n2)cc1C [CBK037799],132.22
24,Cc1nn(C)cc1-c1cncn1CC(C)N1CCC(C)CC1 (stereo not shown) [CBK281789],87.649
25,COC(=O)CCC(=O)NNC(=O)c1cccc(Br)c1 [CBK261606],112.879
26,CCCCN1CCC2CN(CCCC(c3ccc(F)cc3)c3ccc(F)cc3)CCN2C1=O (stereo not shown) [CBK024880C],53.5391
27,COc1cc(C)c(CN2CCN(S(=O)(=O)c3cc(C(=O)O)cs3)CC2)cc1OC [CBK297093],78.0094

row,SMILES,% of control remaining
1,CCC(CC)C(=O)Nc1nc(OC)cnc1-c1cccc(C(=O)N(C)C)c1 [CBK145392],90.6859
2,Cc1ccc(CCSCC(=O)O)cn1 [CBK261072],98.0004
3,COc1ccc(N2CCN(c3cc(-c4cc(C(F)(F)F)cc(C(F)(F)F)c4)ncn3)CC2)cc1OC [CBK091020],76.2888
4,N#CCCn1cc(C(=O)N2CCCCC2)c(-c2ccccc2)n1 [CBK305931],28.9385
5,O=C(Oc1cccc(NC(=O)c2ccco2)c1)c1cccc(S(=O)(=O)N2CCOCC2)c1 [CBK262272],86.4544
6,COc1ccc([N+](=O)[O-])c(Oc2cccc(C(F)(F)F)c2)n1 [CBK002796],96.5952
7,O=C(Nc1cccc(O)c1)c1ccc2c(c1)C(=O)N(c1cccc(N3C(=O)c4ccc(C(=O)Nc5cccc(O)c5)cc4C3=O)n1)C2=O [CBK261199],86.2147
8,Cc1cc(C)n(-c2ccc3nnc(CCC(=O)O)n3n2)n1 [CBK307616],65.2436
9,c1ccc(-c2cccc(-c3cc(N4CCN(CCN5CCCC5)CC4)ncn3)c2)cc1 [CBK091164],102.774
10,CCOC(=O)C1CCN(C(=O)CCn2ccc3ccncc32)CC1 [CBK284720],112.055
11,O=C(c1ccccc1F)N1CCN(C2CCN(Cc3ccccc3)CC2)CC1 [CBK263404],82.4238
12,COc1ccc(C(=O)Nc2c(OC)cc(F)cc2OC2CCNCC2)cc1 [CBK050294T],49.8739
13,COc1ccccc1CN(CCCN)C(=O)NC(C)c1ccccc1 (stereo not shown) [CBK034667C],42.8834
14,CCOC(=O)c1sc(C)c(C(N)=O)c1/N=C1\CCCN1 [CBK020893],67.6109
15,CC(C)C(=O)Nc1ccc(-c2csc(N3CCN(C)CC3)n2)cc1 [CBK304317C],62.1455
16,CCC(Sc1nnc2c(n1)[nH]c1ccccc12)C(=O)Nc1sc2c(c1C#N)CCCC2 (stereo not shown) [CBK263917],107.457
17,CCN(CC)Cc1c(O)ccc2occ(C(=O)c3cc(OC)ccc3OC)c12 [CBK261949],92.3986
18,CC(=O)c1ccc(NC(=O)N2Cc3nc[nH]c3C[C@H]2c2nc(-c3ccc(F)cc3)no2)cc1 [CBK288971],109.584
19,COc1nccnc1OC1CCN(CC(=O)Nc2c(C)cccc2C)CC1 [CBK084249],90.1688
20,O=C(CC[C@@H]1CNC(=O)[C@@H]2C[C@H](NC(=O)c3cccc(F)c3)CN12)Nc1ccccc1 [CBK289008],117.413
21,Cn1ccc(C2=C(N)C(C#N)C3=C(CC(C)(C)CC3=O)O2)c1 (stereo not shown) [CBK022168],54.8093
22,CCN1CCCC1CNC(=O)C1(O)c2ccccc2NC(=O)N1c1ccccc1 (stereo not shown) [CBK288554],82.2085
23,c1ccc(Cn2c(-c3ccccc3)c(-c3ccccc3)c3c2ncn2nc(-c4cccnc4)nc32)cc1 [CBK265359],89.3374
24,CCN(CC)CCN1C(=O)C(O)=C(C(=O)c2ccc3c(c2)OCO3)C1c1cccnc1 (stereo not shown) [CBK266465],113.036
25,CCOC(=O)c1cc(CC)sc1NC(=O)c1cc2ccccc2o1 [CBK267596],106.133
26,COc1ccc(C(=O)Nc2ccc3oc(-c4cccc(C)c4)nc3c2)cc1Br [CBK261944],98.24
27,O=S(=O)(NCC1CCCO1)c1cccs1 (stereo not shown) [CBK044263],83.1359

row,SMILES,% of control remaining
1,O=c1cc(CO)oc(CN2CCSCC2)c1O [CBK288404],100.531
2,O=C(C1=C(O)C(=O)N(CCCN2CCOCC2)C1c1cccnc1)c1ccco1 (stereo not shown) [CBK264528],114.651
3,O=C(O)CCCn1cc(NC(=O)c2cccs2)cn1 [CBK270122],92.4061
4,CCCc1cc(CNC(=O)c2cnn(-c3ccc(F)cc3)c2)on1 [CBK282463],133.957
5,O=C(O)c1cccc(Sc2cc(N3CCCC3)ncn2)c1 [CBK093586],91.1699
6,O=C1CC(C(=O)Nc2cccc(C(=O)O)c2)C(c2ccccc2)O1 (stereo not shown) [CBK293968],126.13
7,CC(C)CCOc1nccnc1-c1ccc2c(c1)OCO2 [CBK106711],102.598
8,NC(=O)CN1CCC(Oc2cncc(OCC3COc4ccccc4O3)n2)C1 (stereo not shown) [CBK084372],90.0567
9,CC(C)c1nccn1CCCNC(=O)N1CCCC(c2ccncn2)C1 (stereo not shown) [CBK307448],33.8944
10,O=C(N[C@H]1C[C@H]2C(=O)NC[C@@H](CCC(=O)N3CCCCC3)N2C1)c1cccs1 [CBK289010],120.241
11,Cn1nc(CC(=O)Nc2ccccc2C(=O)O)c2ccccc2c1=O [CBK286558],62.6341
12,O=C(Cn1cnc2c(cnn2-c2cccc(Cl)c2)c1=O)N1CCCCC1 [CBK287691],89.4185
13,COc1ccc([C@@]23CC[C@@H](NC(=O)Nc4ccc(Cl)c(C(F)(F)F)c4)C[C@@H]2N(C)CC3)cc1OC [CBK038224C],59.2579
14,COc1ccc([C@@]23CC[C@@H](NC(=O)Nc4ccccc4C#N)C[C@@H]2N(C)CC3)cc1OC [CBK047540T],51.4097
15,O=C(c1cccnc1)N1C2CCC1CC(c1ccc(F)cc1)C2 (stereo not shown) [CBK283762],82.9841
16,COc1cc(NC(=O)c2nc[nH]n2)c(OC)cc1Cl [CBK288170],86.4576
17,O=C(Cn1cnc2ccc(F)cc2c1=O)N1Cc2ccccc2C(c2ccccc2)C1 (stereo not shown) [CBK296767],85.0576
18,CC(=O)Nc1ccc(C(=O)Nc2ccc(S(=O)(=O)N3CCOCC3)cc2)cc1 [CBK264763],129.082
19,Cc1ccc(S(=O)(=O)N(CC(=O)O)c2ccc(Br)cc2)cc1 [CBK287125],97.9148
20,Cc1ccc2c(N)c(C(=O)Nc3ccc(C#N)cc3)sc2n1 [CBK115348],89.1603
21,O=C(c1ccc(F)cc1)N1CCC(O)(c2ccccn2)CC1 [CBK283669],58.9499
22,N#Cc1ccc(C(=O)N2CCC3(CC2)NC(=O)c2cc(-c4ccoc4)ccc2O3)cc1 [CBK115852],102.883
23,Cn1ccc(C(=O)NC(Cc2ccsc2)c2ccccn2)cc1=O (stereo not shown) [CBK285273],93.2864
24,O=C(O)c1ccc(-c2ccc(/C=C3/NC(=O)N(c4ccc(Cl)cc4)C3=O)o2)cc1 [CBK077970],67.1934
25,COc1ccc(-c2nc(NC(=O)Cc3ccccc3OC(F)(F)F)cnc2-c2cccc(C)c2)cc1 [CBK037551],129.669
